{"source": "PubChem BioAssay AID2451", "about": "(National Center for Advancing Translational Sciences (NCATS), 2010)", "note": "The whole screen tested about 290,000 compounds, of which about 2,100 (0.72%) were called active. The shares of active, inactive and inconclusive entries below differ from those in the screen. The call rests on the fitted dose curve; in most records, active means well fitted inhibition curve with a large enough effect; inconclusive means small, poorly fitted or top-dose-only effect, or effect the other way; inactive means flat fitted curve, though single readings scatter. Potencies of inconclusive entries are doubtful fits and often do not repeat. Potency means the concentration at half of the fitted maximal effect; tags describe the fitted curve by direction and shape.", "data": [{"target": "Fructose-bisphosphate aldolase (Giardia intestinalis (strain ATCC 50803 / WB clone C6)) (UniProt A8B2U2)", "sequence (A8B2U2 whole entry, looked up)": "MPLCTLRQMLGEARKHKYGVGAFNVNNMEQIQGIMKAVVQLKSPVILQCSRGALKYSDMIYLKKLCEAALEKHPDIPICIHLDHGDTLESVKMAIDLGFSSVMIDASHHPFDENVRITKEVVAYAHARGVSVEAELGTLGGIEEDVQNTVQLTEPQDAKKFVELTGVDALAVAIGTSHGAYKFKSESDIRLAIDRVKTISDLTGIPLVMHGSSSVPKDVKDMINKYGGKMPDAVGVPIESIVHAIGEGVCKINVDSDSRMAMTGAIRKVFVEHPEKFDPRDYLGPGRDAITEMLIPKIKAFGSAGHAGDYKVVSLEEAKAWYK", "test": "qHTS Assay for Inhibitors of Fructose-1,6-bisphosphate Aldolase from Giardia Lamblia; further: nearly all actives have a fitted effect of over 55% in size", "settings": "purified Giardia FBPA; series mostly up to 59.6 µM", "outline": "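40 nM FBPA preincubated 10 min at RT with compound (up to 57.5 uM final), then substrate plus GAPDH/TPI/NAD/arsenate coupling and diaphorase/resazurin added. Fluorescence read after 20 min at RT, 525/598 nm.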", "values": [{"smiles": "COCCn1c(SCC(=O)Nc2nnc(C)s2)nnc1-c1ccncc1", "Potency": "inconclusive: 28.2 µM [inhibitor, partial curve]"}, {"smiles": "COCCCN(C(=S)Nc1c(C)cc(C)cc1C)C(C)c1ccccn1", "note": "(stereo unspecified)", "Potency": "inconclusive: 19.9 µM [inhibitor, single point]"}, {"smiles": "O=C(CCc1nc(-c2ccccc2F)no1)Nc1ccc(Oc2ccccc2)cc1", "Potency": "inactive"}, {"smiles": "COc1ccc(Cl)cc1NC(=O)NC(C)c1ccncc1", "note": "(stereo unspecified)", "Potency": "inconclusive: 15.8 µM [inhibitor, partial curve]"}, {"smiles": "Cc1c(C(=O)N(Cc2ccccc2Cl)C2CCS(=O)(=O)C2)oc2ccccc12", "note": "(stereo unspecified)", "Potency": "inconclusive: 28.2 µM [inhibitor, single point]"}, {"smiles": "CCn1c(CSc2nnc(-c3ccncc3)n2CCOC)nc2cc(C(=O)O)ccc21", "Potency": "inconclusive: 19.9 µM [inhibitor, single point]"}, {"smiles": "COc1ccccc1NC(=O)Cn1nnc(C(=O)NCc2ccc3c(c2)OCO3)c1N", "Potency": "inactive"}, {"smiles": "Cc1ccc2[nH]c3c(=O)n(CC(=O)N4CCN(C)CC4)ncc3c2c1", "Potency": "inactive"}, {"smiles": "Fc1ccc2c(c1)nnn2C1CCN(Cc2nnnn2C2CCCCC2)CC1", "Potency": "inconclusive: 31.6 µM [inhibitor, single point]"}, {"smiles": "COc1ccc(C)cc1Nc1n[n+](-c2ccccc2)c(-c2ccc(SC)cc2)s1", "Potency": "inconclusive: 39.8 µM [inhibitor, single point]"}, {"smiles": "CCOc1ccc(Nc2nc(N)c3ccccc3n2)cc1", "Potency": "inconclusive: 17.8 µM [inhibitor, partial curve]"}, {"smiles": "O=c1cnnc(N/N=C/C2CC=CCC2)[nH]1", "note": "(stereo unspecified)", "Potency": "active: 19.9 µM"}, {"smiles": "Cn1c(=O)c2[nH]c(CNc3ccc(C(=O)O)cc3)nc2n(C)c1=O", "Potency": "inconclusive: 20 µM [inhibitor, partial curve]"}, {"smiles": "O=C(CSc1nc2ncc(Cl)cc2[nH]1)Nc1ccccc1-c1ccccc1", "Potency": "inconclusive: 25.1 µM [inhibitor, single point]"}, {"smiles": "Cc1cccc(C2Nc3cccc4cccc(c34)N2)c1", "Potency": "inconclusive: 20 µM [inhibitor, single point]"}, {"smiles": "O=C(N/N=C/c1ccc([N+](=O)[O-])o1)c1ccncc1", "Potency": "inconclusive: 9.98 µM [inhibitor, partial curve]"}, {"smiles": "COCCN(C(=O)Cc1cccs1)C(C(=O)NC1CCCC1)c1cc(OC)c(OC)c(OC)c1", "note": "(stereo unspecified)", "Potency": "inactive"}, {"smiles": "CN1CCN(CC(=O)Nc2ccc(S(=O)(=O)N(C)C)cc2)CC1", "Potency": "active: 14.1 µM"}, {"smiles": "CN(C)C(CNc1ncnc2sccc12)c1ccccc1", "note": "(stereo unspecified)", "Potency": "inactive"}, {"smiles": "CN(C)/C=N/c1sc2c(c1C#N)CCCC2", "Potency": "inconclusive: 19.9 µM [inhibitor, single point]"}, {"smiles": "Cc1ccc(/C(N)=N/OC(=O)C23CC4CC(CC(C4)C2)C3)cc1", "Potency": "inactive"}, {"smiles": "Cc1ccc(C(=O)NC(=S)NNC(=O)c2ccccc2[N+](=O)[O-])cc1", "Potency": "inconclusive: 5 µM [activator, single point]"}, {"smiles": "CSc1cccc(NCc2ccc([N+](=O)[O-])cc2)c1", "Potency": "inconclusive: 17.7 µM [inhibitor, partial curve]"}, {"smiles": "COc1cc(CC(=O)Nc2ccc3nc(SC)sc3c2)cc(OC)c1OC", "Potency": "inactive"}, {"smiles": "COc1ccc([N+](=O)[O-])cc1COc1cc(C)cc2oc(=O)cc(-c3ccccc3)c12", "Potency": "inconclusive: 15.8 µM [inhibitor, partial curve]"}, {"smiles": "Cc1ccc(S(=O)(=O)/C(=C\\N(C)C)c2cnc(Cl)s2)cc1", "Potency": "inconclusive: 28.1 µM [activator, single point]"}, {"smiles": "O=C(Nc1ccc(N2CCCC2)cc1)c1ccccc1F", "Potency": "inconclusive: 31.5 µM [inhibitor, single point]"}, {"smiles": "Oc1c(Cl)cc(Cl)cc1C=Nc1ccccc1N1CCCC1", "Potency": "inconclusive: 17.7 µM [inhibitor, partial curve]"}, {"smiles": "O=C(Cc1ccc(Br)cc1)Nc1cccc(-c2cn3c(n2)SCC3)c1", "Potency": "inactive"}, {"smiles": "Brc1cccc(OCCSc2ncccn2)c1", "Potency": "inactive"}, {"smiles": "CCOc1ccc2nc(NC(=O)c3ccc(OCC4CCCO4)cc3)sc2c1", "note": "(stereo unspecified)", "Potency": "inactive"}, {"smiles": "CCOC(=O)N1CCC(N(CCN(C)C)C(=S)Nc2ccc(OCC)cc2)CC1", "Potency": "inconclusive: 19.9 µM [inhibitor, single point]"}, {"smiles": "Cc1cccc(-n2c(SCC(=O)O)nc3sc4c(c3c2=O)CCCC4)c1", "Potency": "inconclusive: 15.8 µM [activator, single point]"}, {"smiles": "Cc1cc(Cl)c(OCCOCCN2CCCC(C)C2)c(Br)c1", "note": "(stereo unspecified)", "Potency": "inconclusive: 19.9 µM [inhibitor, partial curve]"}, {"smiles": "FC(F)(F)c1nc(=S)c2ccccc2[nH]1", "Potency": "inconclusive: 28.1 µM [inhibitor, single point]"}, {"smiles": "CCC/C(O)=C1\\C(=O)CCCC1=NCCc1c(C)[nH]c2ccc(OC)cc12", "Potency": "inactive"}, {"smiles": "CC[C@@]1(O)C(=O)OCc2c1cc1n(c2=O)Cc2cc3c(NC(=O)CN)cccc3nc2-1", "Potency": "inconclusive: 2.81 µM [inhibitor, full curve]"}, {"smiles": "CC(C)(C)c1ccc(OC(=O)c2ccc3nsnc3c2)cc1", "Potency": "inactive"}, {"smiles": "N#Cc1c(NCCN)nc(NCc2ccccc2)c2c1CCN(Cc1ccccc1)C2", "Potency": "inconclusive: 15.8 µM [inhibitor, partial curve]"}, {"smiles": "C=CCOc1ccc(CN(C)CC(=O)Nc2ccc3c(c2)CCC3)cc1", "Potency": "inconclusive: 19.9 µM [inhibitor, partial curve]"}, {"smiles": "COc1ccccc1CN1CCN(Cc2ccc3ccccc3c2)CC1", "Potency": "inconclusive: 17.8 µM [inhibitor, single point]"}, {"smiles": "COc1cc(OC)cc(C(=O)N2CCN(C3CCN(Cc4ccccc4)CC3)CC2)c1", "Potency": "inconclusive: 31.5 µM [inhibitor, single point]"}, {"smiles": "CC(=O)c1ccc(OC(C)C)c(Cc2c(O)[nH]c(=S)[nH]c2=O)c1", "Potency": "inconclusive: 14.1 µM [inhibitor, single point]"}, {"smiles": "COc1ccc(NC(=O)C(c2ccc(Cl)cc2)C(C)C)cn1", "note": "(stereo unspecified)", "Potency": "inactive"}, {"smiles": "Cc1ccc2nc(SCC(=O)c3c(N)n(C)c(=O)n(C)c3=O)[nH]c2c1", "Potency": "inconclusive: 19.9 µM [inhibitor, single point]"}, {"smiles": "COC(=O)c1ccc(Cn2cnc3c(sc4nc(N5CCOCC5)c5c(c43)CCCC5)c2=O)o1", "Potency": "inactive"}]}]}
